Data: the supplement of paper PMC8728848
The list shows a part of the results.

Columns and labels:
Experiment in all cases: glycan array binding signal (z-score within array); higher = stronger binding
Settings in all cases: glycan notation: IUPAC condensed, linker removed
[1] = target: Man(a1-2)Man(a1-2)Man(a1-3)Man
How it was run: (§1)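 Glycan array data came from 3228 arrays in the Consortium for Functional Glycomics database, and only arrays with an available protein sequence were kept. Glycan names were put into IUPAC-condensed notation, and columns mapping to the same glycan were averaged. The binding signal is a within-array Z-score, averaged across arrays of one protein sequence run at different concentrations or buffers and across linkers. A negative Z-score can be read as non-binding.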

[2] = target: Man(a1-2)Man(a1-2)Man(a1-6)[Man(a1-3)]Man
How it was run: as §1

Man(a1-2)Man(a1-3)Man = target: Man(a1-2)Man(a1-3)Man
How it was run: as §1

[3] = target: Man(a1-2)Man(a1-3)[Man(a1-2)Man(a1-6)]Man
How it was run: as §1

[4] = target: Man(a1-2)Man(a1-3)[Man(a1-2)Man(a1-6)]Man(a1-6)[Man(a1-2)Man(a1-2)Man(a1-3)]Man(b1-4)GlcNAc(b1-4)GlcNAc
How it was run: as §1

[5] = target: Man(a1-2)Man(a1-3)[Man(a1-6)]Man(a1-6)[Man(a1-2)Man(a1-3)]Man(b1-4)GlcNAc(b1-4)GlcNAc
How it was run: as §1

[6] = target: Man(a1-2)Man(a1-6)[Man(a1-3)]Man(a1-6)[Man(a1-2)Man(a1-2)Man(a1-3)]Man(b1-4)GlcNAc(b1-4)GlcNAc
How it was run: as §1

Man(a1-3)[Man(a1-6)]Man = target: Man(a1-3)[Man(a1-6)]Man
How it was run: as §1

[7] = target: Man(a1-3)[Man(a1-6)]Man(a1-6)[Man(a1-2)Man(a1-3)]Man(b1-4)GlcNAc(b1-4)GlcNAc
How it was run: as §1

[8] = target: Man(a1-3)[Man(a1-6)]Man(a1-6)[Man(a1-3)]Man(b1-4)GlcNAc(b1-4)GlcNAc
How it was run: as §1

[9] = target: Man(a1-3)[Man(a1-6)]Man(b1-4)GlcNAc(b1-4)GlcNAc
How it was run: as §1

Man(b1-4)GlcNAc = target: Man(b1-4)GlcNAc
How it was run: as §1

Neu5Ac(a2-3)Gal = target: Neu5Ac(a2-3)Gal
How it was run: as §1

[10] = target: Neu5Ac(a2-3)Gal(b1-3)GalNAc
How it was run: as §1

[11] = target: Neu5Ac(a2-3)Gal(b1-3)GalNAc(b1-3)Gal(a1-4)Gal(b1-4)Glc
How it was run: as §1

[12] = target: Neu5Ac(a2-3)Gal(b1-3)GalNAc(b1-3)Gal(b1-4)GlcNAc
How it was run: as §1

[13] = target: Neu5Ac(a2-3)Gal(b1-3)GalNAc(b1-4)[Neu5Ac(a2-3)]Gal(b1-4)Glc
How it was run: as §1

[14] = target: Neu5Ac(a2-3)Gal(b1-3)GalNAc6S
How it was run: as §1

[15] = target: Neu5Ac(a2-3)Gal(b1-3)GlcNAc
How it was run: as §1

[16] = target: Neu5Ac(a2-3)Gal(b1-3)GlcNAc6S
How it was run: as §1

[17] = target: Neu5Ac(a2-3)Gal(b1-3)[Fuc(a1-4)]GlcNAc
How it was run: as §1

[18] = target: Neu5Ac(a2-3)Gal(b1-3)[Fuc(a1-4)]GlcNAc(b1-3)Gal(b1-4)[Fuc(a1-3)]GlcNAc
How it was run: as §1

[19] = target: Neu5Ac(a2-3)Gal(b1-3)[Neu5Ac(a2-3)Gal(b1-4)]GlcNAc
How it was run: as §1

[20] = target: Neu5Ac(a2-3)Gal(b1-3)[Neu5Ac(a2-6)]GalNAc
How it was run: as §1

Neu5Ac(a2-3)Gal(b1-4)Glc = target: Neu5Ac(a2-3)Gal(b1-4)Glc
How it was run: as §1

[21] = target: Neu5Ac(a2-3)Gal(b1-4)GlcNAc
How it was run: as §1

[22] = target: Neu5Ac(a2-3)Gal(b1-4)GlcNAc(b1-2)Man(a1-3)[Neu5Ac(a2-3)Gal(b1-4)GlcNAc(b1-2)Man(a1-6)]Man(b1-4)GlcNAc(b1-4)GlcNAc
How it was run: as §1

[23] = target: Neu5Ac(a2-3)Gal(b1-4)GlcNAc(b1-3)Gal(b1-4)GlcNAc
How it was run: as §1

[24] = target: Neu5Ac(a2-3)Gal(b1-4)GlcNAc(b1-3)Gal(b1-4)GlcNAc(b1-3)Gal(b1-4)GlcNAc
How it was run: as §1

[25] = target: Neu5Ac(a2-3)Gal(b1-4)GlcNAc(b1-3)Gal(b1-4)[Fuc(a1-3)]GlcNAc
How it was run: as §1

[26] = target: Neu5Ac(a2-3)Gal(b1-4)GlcNAc6S
How it was run: as §1

[27] = target: Neu5Ac(a2-3)Gal(b1-4)[Fuc(a1-3)]GlcNAc
How it was run: as §1

[28] = target: Neu5Ac(a2-3)Gal(b1-4)[Fuc(a1-3)]GlcNAc(b1-3)Gal
How it was run: as §1

[29] = target: Neu5Ac(a2-3)Gal(b1-4)[Fuc(a1-3)]GlcNAc(b1-3)Gal(b1-4)GlcNAc
How it was run: as §1

B1: RS-IIL (Ralstonia solanacearum) (protein)
chain: AQQGVFTLPANTSFGVTAFANAANTQTIQVLVDNVVKATFTGSGTSDKLLGSQVLNSGSGAIKIQVSVNGKPSDLVSNQTILANKLNFAMVGSEDGTDNDYNDGIAVLNWPLG
glycan array binding signal (z-score) [1]: 4.58
glycan array binding signal (z-score) [2]: 5.58
glycan array binding signal (z-score) (Man(a1-2)Man(a1-3)Man): 3.63
glycan array binding signal (z-score) [3]: 4.47
glycan array binding signal (z-score) [4]: 2.68
glycan array binding signal (z-score) [5]: 4.71
glycan array binding signal (z-score) [6]: 2.99
glycan array binding signal (z-score) (Man(a1-3)[Man(a1-6)]Man): 3.39
glycan array binding signal (z-score) [7]: 3.46
glycan array binding signal (z-score) [8]: 3.48
glycan array binding signal (z-score) [9]: 4.76
glycan array binding signal (z-score) (Man(b1-4)GlcNAc): 0.639
glycan array binding signal (z-score) (Neu5Ac(a2-3)Gal): -0.388
glycan array binding signal (z-score) [10]: -0.389
glycan array binding signal (z-score) [11]: -0.386
glycan array binding signal (z-score) [12]: -0.372
glycan array binding signal (z-score) [13]: -0.377
glycan array binding signal (z-score) [14]: -0.389
glycan array binding signal (z-score) [15]: -0.388
glycan array binding signal (z-score) [16]: -0.387
glycan array binding signal (z-score) [17]: 0.411
glycan array binding signal (z-score) [18]: 0.541
glycan array binding signal (z-score) [19]: -0.389
glycan array binding signal (z-score) [20]: -0.389
glycan array binding signal (z-score) (Neu5Ac(a2-3)Gal(b1-4)Glc): -0.388
glycan array binding signal (z-score) [21]: -0.387
glycan array binding signal (z-score) [22]: -0.353
glycan array binding signal (z-score) [23]: -0.349
glycan array binding signal (z-score) [24]: -0.389
glycan array binding signal (z-score) [25]: -0.388
glycan array binding signal (z-score) [26]: -0.38
glycan array binding signal (z-score) [27]: -0.276
glycan array binding signal (z-score) [28]: -0.263
glycan array binding signal (z-score) [29]: -0.268
